{"source": "paper PMC12136788", "binders": {"B1": {"name": "chr7:65419240:65419241:+_ENSG00000196715_ENST00000360768|hu_hu|FALSE|FALSE (ssRNA)", "RNA": "GGGAGUUCUACAGUCCGACGAUCCGGGCGUCAGUCCUGCUUGGGUUGCAGCUGCCGCUUCCAGGCCUCGUUCAAGUAAACUAGUCGUUUGUAGUUGAUAAUGAGAAGAAGGAAGUUCAGCACGUACGUGACGAUGCAGAUGAUCAACAGAGGAUUGAGCAUCA"}, "B2": {"name": "chr18:52892545:52892546:-_ENSG00000196628_ENST00000354452|hu_mus|FALSE|FALSE (ssRNA)", "RNA": "GGGAGUUCUACAGUCCGACGAUCUGAAAUUGCAGCUUUUUCUCUGUCCGAGUGAGAACAAAAUAUAAAAGCACCAAUUGAAAAAAAAAAUCUCAAAUGAUUUAAUUUAAAAAUUUAAUUUUUUGCUUUGUUUACAGAGUUGAACAACAGAGGAUUGAGCAUCA"}, "B3": {"name": "46683936_46684056_841_CDS_ENSMUSG00000033319_ENSMUST00000036226|mouse|control|control (ssRNA)", "RNA": "GGGAGUUCUACAGUCCGACGAUCUCGAAGAGGAGUUGAGUUGGUUAAAGUCGUGUUGUUGACAGAUGCUCCGUGAUUUAACAAAGACUGGACAACCUUCAGAUGUCCUGCUGCAGAAGCGGCCCAUAAAGGGGGGGCCCCCUCCAACAGAGGAUUGAGCAUCA"}, "B4": {"name": "chr2:91446484:91446485:+_ENSMUSG00000040549_ENSMUST00000099716|mus_mus|FALSE|FALSE (ssRNA)", "RNA": "GGGAGUUCUACAGUCCGACGAUCCAACUUCUCAUCUGCCAUGUGUGUGCUGUAGAUGAGUCUUAGCUGCAUGAAUGUUGCUAUCAGAAACUGAUCAAUGUGGCCAGACAUAGCUUCAGCUUUGUCUUCCUGCCUCAGGACCUCCAACAGAGGAUUGAGCAUCA"}, "B5": {"name": "chr9:70551142:70551143:+_ENSMUSG00000054693_ENSMUST00000067880|mus_mus|FALSE|FALSE (ssRNA)", "RNA": "GGGAGUUCUACAGUCCGACGAUCACGCUGGUGUUUUUGGUGUAAUGAAUCCACAUUGUAAGAUAAUCCUUCAUAAUGUCUAAUAUAUUUAUUUAAAGGAUUUCCAUACUGACCUCCCAGCCCCGCCGCCCAGGAGAGGAGCAGCAACAGAGGAUUGAGCAUCA"}, "B6": {"name": "chr1:220276048:220276049:+_ENSG00000067704_ENST00000302637|hu_hu|hu_hu_hu_mus_True|38_58 (ssRNA)", "RNA": "GGGAGUUCUACAGUCCGACGAUCGCAAAUUGCCUGGUUGGCGGGAAUUGUCCAAGGCUGGGUGGUCCAAACUAAAAUACUAACAGGGGAUGAGGCAUCUAUAAGAGACUCCAACUUCGGAGGAGGUCUCAGGAGGGGGAAUCUCAACAGAGGAUUGAGCAUCA"}, "B7": {"name": "chr2:60073003:60073004:+_ENSMUSG00000026977_ENSMUST00000102748|mus_hu|FALSE|FALSE (ssRNA)", "RNA": "GGGAGUUCUACAGUCCGACGAUCAAGGAGGCUCUCUUUUAUUUUCUGCAAUCUUUCUGGAUCUCUUGAAGGCGCACUUUUAGUUUUAUCACUUUUACCAUCAGCUGAAUUCCAACCUGAAGGAAUAAUAUCUACUGUGAUCAUCAACAGAGGAUUGAGCAUCA"}, "B8": {"name": "chr2:198267338:198267339:-_ENSG00000115524_ENST00000335508|hu_hu|motif|central (ssRNA)", "RNA": "GGGAGUUCUACAGUCCGACGAUCAAUGAUUUCAACUAAACUUCUAAGAUGUGGCAAGAUGGCACAGCCCAUAAGAAUAGCGGUCUGUUGUACAAUCUUAAUACCAGUGUGUCUCGCUUGCCAGGACUUCUUGCUUUUGCACACCAACAGAGGAUUGAGCAUCA"}, "B9": {"name": "chr11:53076483:53076484:-_ENSMUSG00000020361_ENSMUST00000020630|mus_hu|FALSE|FALSE (ssRNA)", "RNA": "GGGAGUUCUACAGUCCGACGAUCUUCAAAUAAUUUUGGUCGUUCUUCAGAUUCCUGGAAACGUAUCUUAAUAGGUUGACCUAGAUUUUUUAAUUCAGCCAACUUAUCAACAUAAACUUGCUUUGGCUGGUCUUCUCCAUCCUCCAACAGAGGAUUGAGCAUCA"}, "B10": {"name": "chr10:127876205:127876206:+_ENSMUSG00000025373_ENSMUST00000096386|mus_hu|motif|central (ssRNA)", "RNA": "GGGAGUUCUACAGUCCGACGAUCUCUAUGGAACAAUUAUGGCCUGUGCCACAAGAGGCAGUGCCAACCAUAUUUUAGCAAAAGCGGGGAGUAGCUUCUUGCUAAACACAUCAACCCCCAACAGAUUAACCCCUACCCUAAACCCAACAGAGGAUUGAGCAUCA"}, "B11": {"name": "chr10:27425285:27425286:-_ENSG00000136758_ENST00000375972|hu_mus|FALSE|FALSE (ssRNA)", "RNA": "GGGAGUUCUACAGUCCGACGAUCUCUGUCCCGCAAAAGAAACCCCUUCACAAAUGAUGGUGCUAUAUUCUGUGCUUCUACUAAUCUUUCAGAGGUAGACUGCAAACGUCGUGUCCUUGAUUUCAACGUUUUGAAACCCCGAGACAACAGAGGAUUGAGCAUCA"}, "B12": {"name": "chr19:32867047:32867048:+_ENSMUSG00000013663_ENSMUST00000013807|mus_hu|motif|central (ssRNA)", "RNA": "GGGAGUUCUACAGUCCGACGAUCAGCACAAAGAUUGUAUAUCUUGUAAUGGUUUUUAUGCUUUGAAUCCAAAAACCUUACGGCAUCAUCAAUAUUGUUCCUGUAUACGCCUUCAAGUCUUUCUGCAGGAAAUCCCAUAGCAAUCAACAGAGGAUUGAGCAUCA"}, "B13": {"name": "chr12:111868959:111868960:+_ENSMUSG00000018707_ENSMUST00000018851|mus_hu|FALSE|FALSE (ssRNA)", "RNA": "GGGAGUUCUACAGUCCGACGAUCCAAUGUGAGCCACUCAUUGAUUUUGGGAUGUUCAGUAAUUGACACAGGAGUUUUAAACAUAACCUCCUCUCCUUCCCGAGAUGAAAUACCCAAAACAACAGAGUUAUCCUCGUUCAGGAUCAACAGAGGAUUGAGCAUCA"}, "B14": {"name": "77926795_77926915_274_3pUTR_ENSG00000138758_ENST00000541121|human|control|control (ssRNA)", "RNA": "GGGAGUUCUACAGUCCGACGAUCCGGUGUCAACAAUGGUUAACUUCAGCCGUACAUUGCUUUCCUGAAGCUCAUAACUUCUGGCUUUUAACCGAACACCUGGUUCAUUGUGAGUAGCUGGGUCACUUUCAAAUUUGGUGUUGACAACAGAGGAUUGAGCAUCA"}}, "note": "Some of the results follow.", "data": [{"molecular_target": "T1, UNK ZnF1-3 (human, UniProt Q9C0B0 31-174)", "T1 sequence": "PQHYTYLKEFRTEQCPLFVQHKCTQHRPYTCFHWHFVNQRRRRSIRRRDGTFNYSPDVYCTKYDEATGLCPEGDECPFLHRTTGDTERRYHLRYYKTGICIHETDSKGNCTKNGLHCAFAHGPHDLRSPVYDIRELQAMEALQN", "assay": "nsRBNS (natural sequence RNA bind-n-seq); RBNS binding buffer (assumed for nsRBNS): 25 mM Tris pH 7.5, 150 mM KCl, 3 mM MgCl2, 0.01% Triton X-100, 500 ug/ml BSA, 20 U/ml SUPERase-In, 4 C; UNK is unkempt and MSI1 is Musashi-1; names of the RNAs are library labels; protein concentration not given here; high values mean tight binding", "units": {"binding signal": "enrichment R"}, "values": [{"binder": "B1", "binding signal": 0.758}, {"binder": "B2", "binding signal": 1.37}, {"binder": "B3", "binding signal": 1.3}, {"binder": "B4", "binding signal": 0.512}, {"binder": "B5", "binding signal": 2}, {"binder": "B6", "binding signal": 2.47}, {"binder": "B7", "binding signal": 0.911}, {"binder": "B8", "binding signal": 0.832}, {"binder": "B9", "binding signal": 0.667}, {"binder": "B10", "binding signal": 1.16}, {"binder": "B11", "binding signal": 1.08}, {"binder": "B12", "binding signal": 1.12}, {"binder": "B13", "binding signal": 1.21}, {"binder": "B14", "binding signal": 0.53}]}]}
